Part of at least one peptide drawing is inferred or uncertain, most often the ends. Some of these results come from one statement about several compounds together. Residues, ends and D or L forms follow the SMILES beside them.
Columns and labels:
[1] = test system: DNA-PK; assay: DNA-PK activity in extracts of mouse cell lines; format: biochemical; conditions: for Specific Activity + DNA: + calf thymus DNA 10 μg/ml; for Specific Activity + DNA / Specific Activity − DNA: peptide 0.2 mM; for Specific Activity − DNA: no added DNA; for Specific Activity Total: total activity in the two fractions divided by total protein; for % of Total: share of total DNA-PK activity, + DNA
Description: (§1) Extracts of additional primate and rodent cells were tested for the presence of DNA-PK activity in accordance with the method of the present invention. The DNA-PK activity was determined using the methods described in Examples 1, 4 and 5 for seven human cell lines, two African green monkey kidney lines, and six rodent cell lines.
(§2) Extracts were prepared essentially as described in Example 10. Cells were lysed by freezing and thawing in hypotonic buffer; soluble (S10) “cytoplasmic” and insoluble in (P10) “nuclear” fractions were made by centrifuging lysates at 10,000×g for 10 min. The insoluble fraction was extracted with buffer containing 0.5 M KCl, which releases any DNA-PK that is bound to DNA. After centrifugation of the salt-washed pellet fraction, which removed the remaining insoluble material, the salt extract (P10S) was diluted and assayed as previously described.
(§3) Protein concentrations, determined using the Bio-Rad dye binding assay, were between 0.3 and 6 mg/ml. Extracts were incubated at 30° C. for 10 min with each peptide at 0.2 mM in the absence of added DNA (−DNA) or with 10 μg/ml calf thymus DNA (+DNA). After incubation the reaction mixtures were acidified with an equal volume of 30% acetic acid and spotted on to Whatman P-81 phosphocellulose paper (Whatman, Inc., Clifton, N.J.). The filters then were washed extensively in 15% acetic acid before the adsorbed radioactivity was quantitated as described in Example 5.
(§4) The amount of phosphate incorporated was calculated from the specific activity of the ATP. The rate of phosphate incorporation into the Ser-Gln-Glu peptide (Table 1) (SEQ ID NO: 11) in the presence of calf thymus DNA was approximately linear throughout the 10 minute reaction incubation period. Parallel assays were performed without added peptide, and these background values were subtracted to produce the activities that are shown in Table 3. Background values varied but, in all cases, were less than 0.2 nmol/min/mg (a few percent of the activity present in human cells). The specific activities were calculated from the total activity in the two fractions divided by the total protein in the two fractions. The percent of total DNA-PK activity in the S10 and P10S fractions was determined with peptide (SEQ ID NO: 11) in the presence of added calf thymus DNA. Extracts without substantial DNA-PK activity were examined for their ability to inhibit purified DNA-PK. Inhibitory activity was not detected.

[2] = test system: DNA-PK; assay: Phosphorylation of synthetic peptides in crude cell extracts (L 929); format: biochemical, mouse; conditions: for PO4 incorporated + DNA / PO4 incorporated − DNA: L 929, peptide 200 μM, 10 min 30° C.; for PO4 incorporated + DNA: + calf thymus DNA 10 μg/ml; for PO4 incorporated − DNA: without DNA
Description: To examine cells for DNA-PK content, extracts from HeLa, T98G human glioblastoma, and mouse L 929 cells were prepared by freeze-thaw lysis of cells harvested from five nearly confluent 9-cm-diameter plates as described in Example 1 and by Lees-Miller, et al. J. Biol. Chem., 264:2431-2437 (1989). T98G (ATCC CRL 1690) is a human glioblastoma cell line; L-929 (ATCC CCL 1) was derived from connective tissue of the NCTC 2071 mouse. Based on earlier work with natural protein substrates, it was expected that extracts of HeLa and T98G cells would contain a significant amount of DNA-PK activity while the extracts of mouse L 929 would contain little, if any, DNA-PK activity. Lysates in low-salt buffer were centrifuged at 10,000×g, to give a supernatant fraction (designated S10) and pellets (designated P10). The pellets were washed by resuspension in a high salt buffer (0.5 M KCl, 25 mM N-2-hydroxyethylpiperazine-N′-2-ethanesulfonic acid (HEPES; pH 7.5), 10 mM MgCl2, 1 mM dithiothreitol) and were sonicated. The sonicated suspension was centrifuged at 10,000×g for 10 min to give a second supernatant fraction (designated P10S), which was diluted with buffer lacking KCl to give a volume equal to that of the original supernatant (S10). Protein concentrations, determined using the Bio-Rad dye-binding assay, were as follows: HeLa S10, 3 mg/ml; HeLa P10S, 1 mg/ml; T98G S10, 3.5 mg/ml;,T98G P10S, 1 mg/ml; L-929 S10, 1 mg/ml; and L-929 P10S, 0.3 mg/ml. These extracts were assayed for the ability to phosphorylate (SEQ ID NOS: 11 and 20) with and without added calf thymus DNA.

[3] = test system: DNA-PK; assay: DNA-PK activity in extracts of hamster cell lines; format: biochemical, Chinese hamster; conditions: for Specific Activity + DNA: + calf thymus DNA 10 μg/ml; for Specific Activity + DNA / Specific Activity − DNA: peptide 0.2 mM; for Specific Activity − DNA: no added DNA; for % of Total: share of total DNA-PK activity, + DNA; for Specific Activity Total: total activity in the two fractions divided by total protein
Description: as §1, §2, §3, §4

[4] = target: catalytic subunit of cyclic AMP kinase (Homo sapiens, UniProt P17612); assay: Phosphate incorporation into peptides by cyclic AMP kinase; format: biochemical; conditions: same concentration (200 or 500 μM)
[5] = target: casein kinase II (Homo sapiens, UniProt P68400); assay: Phosphate incorporation into peptides by casein kinase II; format: biochemical; conditions: same concentration (200 or 500 μM)
[6] = test system: DNA-PK; assay: Peptide phosphorylation by extracts of Drosophila Kc cells; format: biochemical

casein kinase II, sequence (P68400 whole entry): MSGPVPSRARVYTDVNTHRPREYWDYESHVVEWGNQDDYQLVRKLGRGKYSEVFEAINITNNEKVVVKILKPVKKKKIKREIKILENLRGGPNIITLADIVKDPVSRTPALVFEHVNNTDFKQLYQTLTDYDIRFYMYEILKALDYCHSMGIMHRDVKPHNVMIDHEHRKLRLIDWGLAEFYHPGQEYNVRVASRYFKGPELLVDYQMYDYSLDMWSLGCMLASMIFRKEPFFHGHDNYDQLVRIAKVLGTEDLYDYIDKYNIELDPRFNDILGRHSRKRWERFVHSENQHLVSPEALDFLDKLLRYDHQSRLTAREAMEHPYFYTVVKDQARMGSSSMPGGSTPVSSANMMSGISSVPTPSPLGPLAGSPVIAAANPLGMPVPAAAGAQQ
casein kinase II, sequence (P67870 whole entry partner): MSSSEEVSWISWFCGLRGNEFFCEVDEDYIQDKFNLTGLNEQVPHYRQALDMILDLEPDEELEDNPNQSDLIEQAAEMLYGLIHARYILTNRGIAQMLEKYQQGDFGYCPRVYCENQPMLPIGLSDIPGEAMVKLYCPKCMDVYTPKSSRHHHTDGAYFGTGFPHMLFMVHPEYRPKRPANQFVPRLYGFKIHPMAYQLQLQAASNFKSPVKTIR

Compound: CC(C)C[C@H](NC(=O)[C@H](CC(=O)O)NC(=O)[C@H](C)NC(=O)[C@H](Cc1ccccc1)NC(=O)[C@H](C)NC(=O)[C@H](CCC(=O)O)NC(=O)[C@H](CCC(N)=O)NC(=O)[C@H](CO)NC(=O)[C@H](CC(C)C)NC(=O)[C@@H]1CCCN1C(=O)[C@@H]1CCCN1C(=O)[C@@H](N)CCC(=O)O)C(=O)N[C@@H](Cc1c[nH]c2ccccc12)C(=O)N[C@@H](CCCCN)C(=O)N[C@@H](CCCCN)C(=O)O [SEQ ID NO: 11] (H-EPPLSQEAFADLWKK-OH)
- Specific Activity + DNA ([1]; Mouse Balb/c MEF, P10S): 0.15 nmol PO4/min/mg protein
- Specific Activity − DNA ([1]; Mouse Balb/c MEF, P10S): 0.09 nmol PO4/min/mg protein
- Specific Activity + DNA ([1]; Mouse Balb/c MEF, S10): 0.10 nmol PO4/min/mg protein
- Specific Activity − DNA ([1]; Mouse Balb/c MEF, S10): 0.01 nmol PO4/min/mg protein
- Specific Activity Total ([1]; Mouse Balb/c MEF): 0.1 nmol PO4/min/mg protein
- Specific Activity + DNA ([1]; Mouse L-929, P10S): 0.02 nmol PO4/min/mg protein
- Specific Activity − DNA ([1]; Mouse L-929, P10S): 0.0 nmol PO4/min/mg protein
- Specific Activity + DNA ([1]; Mouse L-929, S10): 0.0 nmol PO4/min/mg protein
- Specific Activity − DNA ([1]; Mouse L-929, S10): 0.0 nmol PO4/min/mg protein
- Specific Activity Total ([1]; Mouse L-929): 0.0 nmol PO4/min/mg protein
- Specific Activity + DNA ([1]; Mouse SV-Balb/c, P10S): 0.20 nmol PO4/min/mg protein
- Specific Activity − DNA ([1]; Mouse SV-Balb/c, P10S): 0.15 nmol PO4/min/mg protein
- % of Total ([1]; Mouse SV-Balb/c, P10S): 58%
- Specific Activity + DNA ([1]; Mouse SV-Balb/c, S10): 0.04 nmol PO4/min/mg protein
- Specific Activity − DNA ([1]; Mouse SV-Balb/c, S10): 0.01 nmol PO4/min/mg protein
- % of Total ([1]; Mouse SV-Balb/c, S10): 42%
- Specific Activity Total ([1]; Mouse SV-Balb/c): 0.1 nmol PO4/min/mg protein
- rate of phosphorylation by mouse L 929 extracts relative to human cell extracts [2]: at least 100 times lower
- PO4 incorporated + DNA ([2]; P10S): 0.005 nmol/min/ml of extract
- PO4 incorporated − DNA ([2]; P10S): 0.0 nmol/min/ml of extract
- PO4 incorporated + DNA ([2]; S10): 0.0 nmol/min/ml of extract
- PO4 incorporated − DNA ([2]; S10): 0.0 nmol/min/ml of extract
- Specific Activity + DNA ([3]; Hamster CHO, P10S): 0.05 nmol PO4/min/mg protein
- Specific Activity − DNA ([3]; Hamster CHO, P10S): 0.36 nmol PO4/min/mg protein
- % of Total ([3]; Hamster CHO, P10S): 68%
- Specific Activity + DNA ([3]; Hamster CHO, S10): 0.06 nmol PO4/min/mg protein
- Specific Activity − DNA ([3]; Hamster CHO, S10): 0.05 nmol PO4/min/mg protein
- % of Total ([3]; Hamster CHO, S10): 32%
- Specific Activity Total ([3]; Hamster CHO): 0.2 nmol PO4/min/mg protein
- Specific Activity + DNA ([3]; Hamster V79, P10S): 0.61 nmol PO4/min/mg protein
- Specific Activity − DNA ([3]; Hamster V79, P10S): 0.0 nmol PO4/min/mg protein
- % of Total ([3]; Hamster V79, P10S): 61%
- Specific Activity + DNA ([3]; Hamster V79, S10): 0.11 nmol PO4/min/mg protein
- Specific Activity − DNA ([3]; Hamster V79, S10): 0.01 nmol PO4/min/mg protein
- % of Total ([3]; Hamster V79, S10): 39%
- Specific Activity Total ([3]; Hamster V79): 0.2 nmol PO4/min/mg protein
- incorporation of phosphate relative to the standard peptide of the kinase [4]: less than 5%
- incorporation of phosphate relative to the standard peptide of the kinase [5]: less than 5%
- phosphorylation of the peptide by cell extracts (in words) [6]: little, if any, phosphorylation
